In all, about 150,000 compounds went through this assay and about 540 (0.36%) showed an effect of 50% or more. The list shows a part of the results.

The test system of this assay is Plasmodium falciparum. Kind of assay: Primary screen in NF54 nanoGlo assay, in single point, at 2uM, 72h; a lower Z score goes with more inhibition. The format is functional, Erythrocyte. Conditions: timepoint 72 hour.
Turning to `COCCN(C[C@@H]1CC=CCC1)c1cc(N2CCOCC2)ncn1`, the “% Inhibition” value is given as -3% and the Z score is 0.43.

Regarding `CN1C(=O)[C@H]2CN(c3ncccc3F)C[C@H]2C1=O`, the “% Inhibition” value is listed as -3% and the Z score is reported as 0.5.

As to `Cc1noc([C@H]2C[C@H](O)CN2c2ccc(C#N)nc2)n1`, the “% Inhibition” value is -4% and the Z score is reported as 0.49.

As for `COc1ccc2nc3c(cc2c1)c(NC(=O)C1CCCCC1)nn3CC(C)C`, the “% Inhibition” value is on record as -9% and the Z score worked out at 1.11.

Consider `Cc1cc(Cl)cc(C(=O)N2CCC[C@H](Cn3ccnn3)C2)c1`, for which the “% Inhibition” value is recorded as -6% and the Z score was 0.9.

For `O=C(Cc1cccs1)N1CCN(c2nnc3ccc(C(F)(F)F)cn23)CC1`, the “% Inhibition” value was -25% and the Z score is 2.76.

As to `CCCCc1noc(CN2CCc3ccc(F)cc32)n1`, the “% Inhibition” value is -4% and the Z score is recorded as 0.58.

As for `CC(NC(=O)[C@@H]1CC=CC[C@@H]1C(=O)O)c1ccc(-n2cccn2)cc1` (some centres not stated), the “% Inhibition” value was -2% and the Z score was found to be 0.29.

For the molecule `c1ccc2[nH]c(-c3ccc4[nH]c(C5CC5)nc4c3)nc2c1`, the “% Inhibition” value is on record as -5% and the Z score is 0.54.

With `CCCCN(Cc1ccco1)C(=O)Nc1ccc(OC)c(C(=O)N(C)C)c1`, the “% Inhibition” value is listed as -11% and the Z score is 2.15.

On to `C#CC1(OC(=O)Nc2ccccc2)CCCCC1`, for which the “% Inhibition” value came out at 5% and the Z score was -0.64.

Take `CCN(CC(=O)NCc1ccccn1)CC1CC1`: the “% Inhibition” value is on record as -3% and the Z score is 0.37.

For `CCC[C@H]1CN(C(=O)CCc2ccccn2)C[C@@H]1N(C)C`, the “% Inhibition” value is given as -14% and the Z score is 2.38.

For `CN1CCN(C(=O)C(F)(F)[C@@]2(F)OC(F)(F)C(F)(F)C2(F)F)CC1`, the “% Inhibition” value was -7% and the Z score turned out to be 1.27.

In the case of `Cn1ccnc1CNC[C@H]1Cn2c(-c3ccc4c(c3)OCCO4)cnc2CO1`, the “% Inhibition” value is listed as -8% and the Z score is recorded as 1.45.

As for `COCCn1cnnc1CNC(=O)c1ccn(C)c1C`, the “% Inhibition” value is reported as -1% and the Z score is on record as 0.1.

Take `COCc1cc(CNc2ccc(C)nc2C)no1`: the “% Inhibition” value is given as -6% and the Z score is 1.1.

Take `CN1CCN(C(=O)c2cc(-c3ccc4c(c3)OCCO4)nc3ccccc23)CC1`: the “% Inhibition” value is given as -10% and the Z score was determined as 1.67.

Take `O=C(NCc1cccs1)N1CC(Oc2cccc(C(F)(F)F)n2)C1`: the “% Inhibition” value is on record as -9% and the Z score is given as 1.8.

Turning to `Cc1ncn(Cc2ncnn2-c2ccc3c(c2)OCO3)c1C`, the “% Inhibition” value was -8% and the Z score turned out to be 1.6.

For `Cc1n[nH]c(CN(C)CCC2(O)CCCC2)c1Cl`, the “% Inhibition” value came to 3% and the Z score is recorded as -0.5.

`CCNC(=O)c1ccccc1NC(=O)C(C)(C)C`: the “% Inhibition” value is given as -1% and the Z score was found to be 0.13.

In the case of `COc1cccc(N2CCN(C(=O)c3ccc(-n4cnc(NC(C)=O)c4)cc3)CC2)c1`, the “% Inhibition” value is 15% and the Z score was -1.72.

Regarding `O=C1N[C@@H](CC2CCCCC2)C(=O)N[C@H]1COCc1ccccc1`, the “% Inhibition” value is reported as -8% and the Z score was 1.07.

Turning to `O=C1NCCCCCCN(Cc2ccc(F)cc2F)[C@H]2CCC[C@@H]12`, the “% Inhibition” value was -20% and the Z score amounted to 2.62.

As to `COCc1noc([C@@H]2CN(C(=O)c3ccc(Cl)s3)C[C@H]2C(N)=O)n1`, the “% Inhibition” value was -10% and the Z score is recorded as 1.56.

For `O=C(CN1CCN(c2cccc(Cl)c2)C1=O)N1CCN(c2ccccc2O)CC1`, the “% Inhibition” value turned out to be 16% and the Z score is given as -1.81.

Turning to `CN(c1ccc(C(=O)O)cc1)S(=O)(=O)c1cnn(C2CCCC2)c1`, the “% Inhibition” value came to 10% and the Z score is listed as -1.96.

For the molecule `COc1ccc(C(=O)N2C[C@H]3COCC[C@@]3(O)[C@@H]3COCC[C@@H]32)cc1O`, the “% Inhibition” value is on record as -10% and the Z score is 0.89.

Consider `CCOc1ncccc1C(=O)N1CCn2cncc2C1`, for which the “% Inhibition” value was -3% and the Z score is on record as 0.55.

`COc1ccc2c(c1)C(=O)N(Cc1ccccc1)C1CCCCC21` (configuration not stated): the “% Inhibition” value is -18% and the Z score is recorded as 2.11.

As for `CN1CCN(c2ccccc2NC(=O)N[C@@H]2CCCC[C@H]2NC(=O)OC(C)(C)C)CC1`, the “% Inhibition” value is -3% and the Z score is listed as 0.39.

In the case of `CC1(C)O[C@@H]2C[C@@](OCc3ccccc3F)(C(=O)NC3CC3)CC(OCc3cccc(Cl)c3)[C@@H]2O1` (some centres not stated), the “% Inhibition” value is recorded as -12% and the Z score was determined as 1.61.

Turning to `Cc1cc(C)c(C#N)c(N2CCn3nc([C@H](O)c4nccn4C)cc3C2)n1`, the “% Inhibition” value is -4% and the Z score came out at 0.57.

As to `O=C(Nc1cccnc1)c1cccc(Oc2cccc(C(F)(F)F)c2)c1`, the “% Inhibition” value is on record as -13% and the Z score came out at 1.85.

As for `FC(F)(F)c1cc(-c2ccco2)n(-c2nc(-c3ccc(Cl)cc3)cs2)n1`, the “% Inhibition” value is recorded as -9% and the Z score came to 1.43.

Regarding `Cc1ccc([C@@H]2C[C@H](c3cccc(Cl)c3)n3nc(N)nc3N2)cc1`, the “% Inhibition” value came to 3% and the Z score is listed as -0.37.

Take `CCC(CC)n1ncc(C)c1NC(=O)C[C@H]1CCC(=O)N1`: the “% Inhibition” value is reported as 4% and the Z score is given as -0.65.

Take `C[C@@H](C1CCN(C(=O)c2cccc(N)n2)CC1)N1CCN(C)CC1`: the “% Inhibition” value was -14% and the Z score was 1.52.

As to `Cc1nc([C@H]2C[C@@H]2c2ccccc2)n(CC(C)(C)O)n1`, the “% Inhibition” value is 1% and the Z score is reported as -0.17.

Consider `O=C(CN1CCO[C@H]2CCCC[C@@H]21)NCc1cccs1`, for which the “% Inhibition” value was 10% and the Z score is -1.79.

Broadly, the % Inhibition is the change of the read-out against control, counted positive when it falls.
